The supplement of paper PMC4967469

Compound: CS(=O)(=O)N1CCN(Cc2cc3nc(-c4cccc5[nH]ncc45)nc(N4CCOCC4)c3s2)CC1 [GDC0941]
Experiment: Viability of human cancer cell lines after 72 h of drug (GDSC screen)
Experimental: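 Human cancer cell lines in 384-well plates, medium with 10% serum, drug for 72 h over a 256-fold dose range (nine 2-fold or five 4-fold steps up to the top dose). Adherent lines were fixed and stained with the nucleic acid dye Syto60, suspension lines read with resazurin; signal relative to control wells, capped at 0 and 100%. One two-parameter sigmoid per drug and line, fitted in a mixed model over all curves with the slope shared within a line.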

[1] = top dose 4 µM, screen: GDSC drug entry 1527, top dose inferred

| Cell Line | AUC (screen: GDSC drug entry 1058) | IC50 (screen: GDSC drug entry 1058) | AUC [1] | IC50 [1] |
| --- | --- | --- | --- | --- |
| Raji (Burkitt lymphoma, suspension, top dose 4 µM) | 0.974 | > 4000 nM | – | – |
| CAL-33 (head and neck, adherent, top dose 4 µM) | 0.456 | 189 nM | – | – |
| EC-GI-10 (oesophagus, adherent, top dose 4 µM) | 0.661 | 699 nM | – | – |
| LS-180 (large intestine, adherent, top dose 4 µM) | 0.91 | > 4000 nM | – | – |
| MC116 (B-cell lymphoma, suspension, top dose 4 µM) | 0.999 | > 4000 nM | – | – |
| LB2518-MEL (melanoma, adherent, top dose 4 µM) | 0.886 | > 4000 nM | – | – |
| OVTOKO (ovary, adherent, top dose 4 µM) | 0.512 | 272 nM | – | – |
| HCC-15 (lung squamous cell carcinoma, adherent, top dose 4 µM) | 0.836 | 3790 nM | – | – |
| EW-3 (Ewing sarcoma, adherent, top dose 4 µM) | 0.711 | 1090 nM | – | – |
| RCC-MF (kidney, adherent, top dose 4 µM) | 0.698 | 1070 nM | – | – |
| MOG-G-UVW (glioma, adherent, top dose 4 µM) | 0.831 | 2450 nM | – | – |
| EN (endometrium, adherent, top dose 4 µM) | 0.869 | > 4000 nM | – | – |
| MKN1 (stomach, adherent, top dose 2 µM) | 0.859 | 1810 nM | – | – |
| YKG-1 (glioma, adherent, top dose 4 µM) | 0.833 | 2640 nM | – | – |
| IPC-298 (melanoma, adherent, top dose 4 µM) | 0.917 | > 4000 nM | – | – |
| OSC-19 (head and neck, adherent, top dose 4 µM) | 0.719 | 1070 nM | – | – |
| JHH-1 (liver, adherent, top dose 4 µM) | 0.663 | 741 nM | – | – |
| BCPAP (thyroid, adherent, top dose 2 µM) | 0.975 | > 2000 nM | – | – |
| MEL-JUSO (melanoma, adherent, top dose 4 µM) | 0.796 | 2130 nM | – | – |
| THP-1 (acute myeloid leukaemia, suspension, top dose 4 µM) | 0.788 | 1560 nM | – | – |
| C-4-I (cervix, adherent, top dose 4 µM) | 0.686 | 871 nM | – | – |

| Cell Line | AUC (screen: GDSC drug entry 1058) | IC50 (screen: GDSC drug entry 1058) | AUC [1] | IC50 [1] |
| --- | --- | --- | --- | --- |
| PF-382 (T-cell lymphoblastic leukaemia, suspension, top dose 4 µM) | 0.813 | 1830 nM | – | – |
| H3255 (lung adenocarcinoma, adherent, top dose 4 µM) | 0.93 | > 4000 nM | – | – |
| NCI-H2291 (lung adenocarcinoma, adherent, top dose 4 µM) | 0.823 | 3640 nM | – | – |
| 8305C (thyroid, adherent, top dose 4 µM) | 0.822 | 3340 nM | – | – |
| GI-1 (glioma, adherent, top dose 4 µM) | 0.927 | > 4000 nM | – | – |
| HT-1080 (fibrosarcoma, adherent, top dose 4 µM) | 0.866 | 2970 nM | – | – |
| LOXIMVI (melanoma, semi-adherent, top dose 4 µM) | 0.806 | 1770 nM | – | – |
| HSC-2 (head and neck, adherent, top dose 4 µM) | 0.882 | 3680 nM | – | – |
| NCI-H2141 (small cell lung carcinoma, suspension, top dose 4 µM) | 0.932 | > 4000 nM | – | – |
| ESO51 (oesophagus, semi-adherent, top dose 4 µM) | 0.645 | 744 nM | – | – |
| SF126 (glioma, adherent, top dose 4 µM) | 0.793 | 1940 nM | – | – |
| MDA-MB-415 (breast, adherent, top dose 4 µM) | 0.756 | 1800 nM | – | – |
| KMRC-20 (kidney, adherent, top dose 4 µM) | 0.987 | > 4000 nM | – | – |
| KMRC-1 (kidney, adherent, top dose 4 µM) | 0.896 | > 4000 nM | – | – |
| M059J (glioma, adherent, top dose 4 µM) | 0.94 | > 4000 nM | – | – |
| NCI-H727 (lung carcinoid, adherent, top dose 4 µM) | 0.829 | > 4000 nM | – | – |
| IHH-4 (thyroid, semi-adherent, top dose 4 µM) | 0.799 | 1490 nM | – | – |
| MFE-319 (endometrium, adherent, top dose 2 µM) | 0.895 | > 2000 nM | – | – |
| NCI-H2052 (mesothelioma, adherent, top dose 4 µM) | 0.965 | > 4000 nM | – | – |
| LU-134-A (small cell lung carcinoma, suspension, top dose 4 µM) | 0.766 | 1570 nM | – | – |
| NCI-H1650 (lung adenocarcinoma, adherent) | – | – | 0.868 | > 4000 nM |

| Cell Line | AUC (screen: GDSC drug entry 1058) | IC50 (screen: GDSC drug entry 1058) | AUC [1] | IC50 [1] |
| --- | --- | --- | --- | --- |
| NCI-H647 (non-small cell lung carcinoma, adherent, top dose 4 µM) | 0.96 | > 4000 nM | – | – |
| MN-60 (B-cell leukaemia, suspension, top dose 4 µM) | 0.878 | > 4000 nM | – | – |
| LS-411N (large intestine, adherent, top dose 4 µM) | 0.903 | > 4000 nM | – | – |
| NCI-SNU-5 (stomach, suspension, top dose 4 µM) | 0.612 | 509 nM | – | – |
| CHP-126 (neuroblastoma, suspension, top dose 4 µM) | 0.939 | > 4000 nM | – | – |
| RCC-JF (kidney, adherent, top dose 4 µM) | 0.557 | 364 nM | – | – |
| AM-38 (glioma, semi-adherent, top dose 4 µM) | 0.925 | > 4000 nM | – | – |
| NCI-H226 (lung squamous cell carcinoma, adherent, top dose 4 µM) | 0.985 | > 4000 nM | – | – |
| D-502MG (glioma, adherent, top dose 4 µM) | 0.726 | 1600 nM | – | – |
| ES-2 (ovary, adherent, top dose 4 µM) | 0.933 | > 4000 nM | – | – |
| EBC-1 (lung squamous cell carcinoma, adherent, top dose 4 µM) | 0.915 | > 4000 nM | – | – |
| SF539 (glioma, adherent, top dose 4 µM) | 0.912 | > 4000 nM | – | – |
| LU-165 (small cell lung carcinoma, suspension, top dose 4 µM) | 0.981 | > 4000 nM | – | – |
| SNU-81 (large intestine, adherent, top dose 4 µM) | 0.679 | 943 nM | – | – |
| MS751 (cervix, adherent, top dose 4 µM) | 0.925 | > 4000 nM | – | – |
| OVMIU (ovary, adherent, top dose 4 µM) | 0.821 | 3100 nM | – | – |
| L-428 (Hodgkin lymphoma, suspension, top dose 4 µM) | 0.982 | > 4000 nM | – | – |
| D-392MG (glioma, adherent, top dose 4 µM) | 0.916 | > 4000 nM | – | – |
| TE-10 (oesophagus, adherent, top dose 4 µM) | 0.953 | > 4000 nM | – | – |
| C3A (liver, adherent, top dose 4 µM) | 0.988 | > 4000 nM | – | – |

A lower IC50 marks a more sensitive line; fits outside the tested doses are given as limits. AUC, from the same fit, is the share of area under the viability curve across the 256-fold dose range; values near 1 show little effect. The top dose, if marked as inferred, was calculated from the reported fits. Where an entry number is given, a second screen of the drug exists; the two often differ.
